We go through 31 molecules from PMC9911399, “Two distinct binding modes provide the RNA-binding protein RbFox with extraordinary sequence specificity”.

T1: RBFOX1 RRM (Homo sapiens, UniProt Q9NWB1 109-208)
T1 sequence: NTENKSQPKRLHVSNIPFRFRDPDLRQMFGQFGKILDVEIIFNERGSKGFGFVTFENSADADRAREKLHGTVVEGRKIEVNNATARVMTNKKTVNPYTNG

B1: UGUUCCG (DNA:RNA)
RNA: GGGAGACCGGAAUUCAGAUUGUCCUGUUCCGUUAAAUCCCGUCGUAGCCACCA
DNA 1: CAATCTGAATTCCGGTCTCCC
DNA 2: TGGTGGCTACGACGGGATT
B2: GGCUCUA (DNA:RNA)
RNA: B1 RNA with U25G, U27C, C30U, G31A
DNA 1: CAATCTGAATTCCGGTCTCCC
DNA 2: TGGTGGCTACGACGGGATT
B3: AUACUGC (DNA:RNA)
RNA: GGGAGACCGGAAUUCAGAUUGUCCAUACUGCUUAAAUCCCGUCGUAGCCACCA
DNA 1: CAATCTGAATTCCGGTCTCCC
DNA 2: TGGTGGCTACGACGGGATT
B4: UCGAGCA (DNA:RNA)
RNA: B1 RNA with G26C, U27G, U28A, C29G, G31A
DNA 1: CAATCTGAATTCCGGTCTCCC
DNA 2: TGGTGGCTACGACGGGATT
B5: AAAGAAA (DNA:RNA)
RNA: B3 RNA with U26A, C28G, U29A, G30A, C31A
DNA 1: CAATCTGAATTCCGGTCTCCC
DNA 2: TGGTGGCTACGACGGGATT
B6: GAUAUUU (DNA:RNA)
RNA: B3 RNA with A25G, U26A, A27U, C28A, G30U, C31U
DNA 1: CAATCTGAATTCCGGTCTCCC
DNA 2: TGGTGGCTACGACGGGATT
B7: GAGGGAU (DNA:RNA)
RNA: GGGAGACCGGAAUUCAGAUUGUCCGAGGGAUUUAAAUCCCGUCGUAGCCACCA
DNA 1: CAATCTGAATTCCGGTCTCCC
DNA 2: TGGTGGCTACGACGGGATT
B8: CUAACCU (DNA:RNA)
RNA: B3 RNA with A25C, C28A, U29C, G30C, C31U
DNA 1: CAATCTGAATTCCGGTCTCCC
DNA 2: TGGTGGCTACGACGGGATT
B9: GCCUAUA (DNA:RNA)
RNA: B7 RNA with A26C, G27C, G28U, G29A, A30U, U31A
DNA 1: CAATCTGAATTCCGGTCTCCC
DNA 2: TGGTGGCTACGACGGGATT
B10: CCCACGC (DNA:RNA)
RNA: B3 RNA with A25C, U26C, A27C, C28A, U29C
DNA 1: CAATCTGAATTCCGGTCTCCC
DNA 2: TGGTGGCTACGACGGGATT
B11: ACGACAC (DNA:RNA)
RNA: B3 RNA with U26C, A27G, C28A, U29C, G30A
DNA 1: CAATCTGAATTCCGGTCTCCC
DNA 2: TGGTGGCTACGACGGGATT
B12: GUGAACA (DNA:RNA)
RNA: B7 RNA with A26U, G28A, G29A, A30C, U31A
DNA 1: CAATCTGAATTCCGGTCTCCC
DNA 2: TGGTGGCTACGACGGGATT
B13: UUCUUCG (DNA:RNA)
RNA: B1 RNA with G26U, U27C, C29U
DNA 1: CAATCTGAATTCCGGTCTCCC
DNA 2: TGGTGGCTACGACGGGATT
B14: CCGGUGA (DNA:RNA)
RNA: B3 RNA with A25C, U26C, A27G, C28G, C31A
DNA 1: CAATCTGAATTCCGGTCTCCC
DNA 2: TGGTGGCTACGACGGGATT
B15: UGGUGGC (DNA:RNA)
RNA: B1 RNA with U27G, C29G, C30G, G31C
DNA 1: CAATCTGAATTCCGGTCTCCC
DNA 2: TGGTGGCTACGACGGGATT
B16: GGUUAUA (DNA:RNA)
RNA: B1 RNA with U25G, C29A, C30U, G31A
DNA 1: CAATCTGAATTCCGGTCTCCC
DNA 2: TGGTGGCTACGACGGGATT
B17: GCUACCA (DNA:RNA)
RNA: B1 RNA with U25G, G26C, U28A, G31A
DNA 1: CAATCTGAATTCCGGTCTCCC
DNA 2: TGGTGGCTACGACGGGATT
B18: GCGCGCA (DNA:RNA)
RNA: B7 RNA with A26C, G28C, A30C, U31A
DNA 1: CAATCTGAATTCCGGTCTCCC
DNA 2: TGGTGGCTACGACGGGATT
B19: GACUUGC (DNA:RNA)
RNA: B3 RNA with A25G, U26A, A27C, C28U
DNA 1: CAATCTGAATTCCGGTCTCCC
DNA 2: TGGTGGCTACGACGGGATT
B20: CUCGUCU (DNA:RNA)
RNA: B3 RNA with A25C, A27C, C28G, G30C, C31U
DNA 1: CAATCTGAATTCCGGTCTCCC
DNA 2: TGGTGGCTACGACGGGATT
B21: CAGAGUC (DNA:RNA)
RNA: B7 RNA with G25C, G28A, A30U, U31C
DNA 1: CAATCTGAATTCCGGTCTCCC
DNA 2: TGGTGGCTACGACGGGATT
B22: GGCCUCU (DNA:RNA)
RNA: B3 RNA with A25G, U26G, A27C, G30C, C31U
DNA 1: CAATCTGAATTCCGGTCTCCC
DNA 2: TGGTGGCTACGACGGGATT
B23: GAACCUA (DNA:RNA)
RNA: B3 RNA with A25G, U26A, U29C, G30U, C31A
DNA 1: CAATCTGAATTCCGGTCTCCC
DNA 2: TGGTGGCTACGACGGGATT
B24: UUCACUA (DNA:RNA)
RNA: B1 RNA with G26U, U27C, U28A, C30U, G31A
DNA 1: CAATCTGAATTCCGGTCTCCC
DNA 2: TGGTGGCTACGACGGGATT
B25: UUGUCAG (DNA:RNA)
RNA: B1 RNA with G26U, U27G, C30A
DNA 1: CAATCTGAATTCCGGTCTCCC
DNA 2: TGGTGGCTACGACGGGATT
B26: GGUGUAC (DNA:RNA)
RNA: B7 RNA with A26G, G27U, G29U, U31C
DNA 1: CAATCTGAATTCCGGTCTCCC
DNA 2: TGGTGGCTACGACGGGATT
B27: GAAUCCA (DNA:RNA)
RNA: B1 RNA with U25G, G26A, U27A, G31A
DNA 1: CAATCTGAATTCCGGTCTCCC
DNA 2: TGGTGGCTACGACGGGATT
B28: UCAUGGG (DNA:RNA)
RNA: B1 RNA with G26C, U27A, C29G, C30G
DNA 1: CAATCTGAATTCCGGTCTCCC
DNA 2: TGGTGGCTACGACGGGATT
B29: UCGGGGA (DNA:RNA)
RNA: B7 RNA with G25U, A26C, A30G, U31A
DNA 1: CAATCTGAATTCCGGTCTCCC
DNA 2: TGGTGGCTACGACGGGATT
B30: AAUACGG (DNA:RNA)
RNA: B1 RNA with U25A, G26A, U28A, C30G
DNA 1: CAATCTGAATTCCGGTCTCCC
DNA 2: TGGTGGCTACGACGGGATT
B31: UACCUAC (DNA:RNA)
RNA: B3 RNA with A25U, U26A, A27C, G30A
DNA 1: CAATCTGAATTCCGGTCTCCC
DNA 2: TGGTGGCTACGACGGGATT

Substitutions are numbered along the chain they refer to; changes in the protein carry UniProt numbers. Some of the results follow.

The assay has as its target T1, RBFOX1 RRM. Description: EMSA; HiTS-Eq, 1 nM pool, 10 min; buffer printed only for the single-RNA assays: 10 mM Tris pH 7.5, 150 mM NaCl, 3.4 mM EDTA, 0.001% NP-40, 30 C. The settings on record: tags: His6 N-terminal (pET28a); label: 5' 32P. A digest of the protocol:
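Purified RbFox RRM (wild type or mutant) was equilibrated for 10 min in 50 µL with 1 nM of a 5′-radiolabelled pool of RNA with 7 randomized nucleotides, its flanks annealed to DNA oligonucleotides, across increasing protein concentrations. Free RNA was separated by 8% native PAGE, excised, reverse-transcribed, PCR-barcoded and sequenced on an Illumina HiSeq 2500. Relative association constants came from read-count changes of each variant against the control reaction, normalised to the cognate motif.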
A general note: A gel shift assay detects complexes by their altered migration in electrophoresis.
As to B1, the binding signal was 0.0186 KA relative to UGCAUGU.

With B2, the binding signal is 0.00407 KA relative to UGCAUGU.

Take B3: the binding signal was 0.007 KA relative to UGCAUGU.

Take B4: the binding signal is 0.0163 KA relative to UGCAUGU.

Turning to B5, the binding signal is 0.000936 KA relative to UGCAUGU.

With B6, the binding signal is 0.00677 KA relative to UGCAUGU.

B7: the binding signal was 0.0272 KA relative to UGCAUGU.

In the case of B8, the binding signal was 0.00307 KA relative to UGCAUGU.

Turning to B9, the binding signal was 0.00531 KA relative to UGCAUGU.

In the case of B10, the binding signal was 0.00611 KA relative to UGCAUGU.

For B11, the binding signal is 0.00283 KA relative to UGCAUGU.

As to B12, the binding signal is 0.00665 KA relative to UGCAUGU.

As to B13, the binding signal was 0.021 KA relative to UGCAUGU.

Take B14: the binding signal is 0.0216 KA relative to UGCAUGU.

Take B15: the binding signal is 0.0186 KA relative to UGCAUGU.

Turning to B16, the binding signal is 0.00389 KA relative to UGCAUGU.

In the case of B17, the binding signal is 0.00726 KA relative to UGCAUGU.

Take B18: the binding signal was 0.0238 KA relative to UGCAUGU.

For the molecule B19, the binding signal is 0.0149 KA relative to UGCAUGU.

Consider B20, for which the binding signal was 0.0141 KA relative to UGCAUGU.

For B21, the binding signal is 0.0108 KA relative to UGCAUGU.

With B22, the binding signal was 0.0109 KA relative to UGCAUGU.

Regarding B23, the binding signal is 0.00306 KA relative to UGCAUGU.

As for B24, the binding signal is 0.00407 KA relative to UGCAUGU.

Take B25: the binding signal is 0.0244 KA relative to UGCAUGU.

With B26, the binding signal is 0.00953 KA relative to UGCAUGU.

For B27, the binding signal is 0.00426 KA relative to UGCAUGU.

As for B28, the binding signal is 0.00438 KA relative to UGCAUGU.

Take B29: the binding signal is 0.00884 KA relative to UGCAUGU.

As for B30, the binding signal was 0.00325 KA relative to UGCAUGU.

Regarding B31, the binding signal is 0.00304 KA relative to UGCAUGU.
